# Measurements reported in ChEMBL document CHEMBL4888484, “Replenishing the malaria drug discovery pipeline: Screening and hit evaluation of the MMV Hit Generation Library 1 (HGL1) against asexual blood stage Plasmodium falciparum ,using a nano luciferase reporter read-out” (2022).
# In all, about 150,000 compounds went through this assay and about 540 (0.36%) showed an effect of 50% or more. The list shows a part of the results.
# Test system: Plasmodium falciparum
# Assay: Primary screen in NF54 nanoGlo assay, in single point, at 2uM, 72h; a lower Z score goes with more inhibition
# Format: functional, Erythrocyte
# Conditions: timepoint 72 hour
Compound,% Inhibition [%],Z score
COCCC1(c2noc(C)n2)CCN(C(=O)c2cc(Cl)ccc2F)CC1,-2,0.2
O=C(c1ccc(-c2ccccc2)[nH]c1=O)N1C[C@H]2CCC[C@@]2(CO)C1,-6,1.19
Cc1nc2c(C)cccn2c1[C@H](Nc1ccc(Cl)cc1)c1ccccc1,-10,1.49
COCCN(C)CC(=O)N1CCC(C)(C#N)CC1,-10,1.83
Cc1ccc(C(=O)Nc2ccccc2)c(C2CCN(C(=O)c3ccc(F)cc3)CC2)n1,-17,3.2
CN(C(=O)c1cncc(Br)c1)C1(C#N)CCC1,-7,1.2
CCc1cn[nH]c1[C@H]1CCCN(C(=O)CCn2nc(C)c(C(C)=O)c2C)C1,10,-1.21
CCCC(C)S(=O)(=O)NC(=O)C(C)c1ccccc1 (centres undefined),3,-0.35
CC1CN(C(CNCc2nccn2C)c2cccs2)CCO1 (centres undefined),-8,0.86
C[C@H](NC(=O)N1CCCC(c2ccc(F)c(F)c2)C1)c1ncccc1F (some centres undefined),-12,1.96
COC(=O)c1nc(NC(=O)c2ccncc2)sc1-c1ccccc1OC,-3,0.45
COC[C@H](NC(=O)c1ccc(C)s1)c1ccnn1C,-9,1.61
Cc1ccn2ncnc2c1NC(=O)COC[C@H]1CCCO1,-6,1.04
CN(C)c1ccc(CNS(=O)(=O)c2ccnn2C)cc1,-5,0.67
O=C(NCCC1CCCCC1)N1CCCCC1,14,-1.78
O=C(NCc1cccnc1N1CCOCC1)c1ccco1,-9,1.27
CCOc1ncccc1CNc1nc(C2CC2)ns1,-8,1.26
CC1(C)COC[C@@H]1NC(=O)c1ccc(CN2CCNC(=O)C2)cc1,2,-0.39
CCn1nccc1CNc1ccc(-c2nncn2-c2ccccc2)cn1,-19,2.34

Compound,% Inhibition [%],Z score
C[C@@H](CN1CCOCC1)NC(=O)c1cc(Cl)c(Cl)n1C,-2,0.32
CC(C)=CC[C@]1(C(=O)O)CCCN(Cc2nnc(C)s2)C1,4,-0.72
COc1ccc(N2CCN(Cc3ccoc3)CC2)cc1,-11,2.12
CCc1noc([C@H](C)NC(=O)c2cc(Cn3ccnc3C(C)C)[nH]n2)n1,-2,0.4
CCN1CC2(CCN(Cc3cccnc3)CC2)C[C@@H](c2ccccc2)C1=O,4,-0.87
Cc1cc([C@@H](O)CNC(=O)c2ccc(Br)o2)c(C)o1,-7,1.39
CC1(F)CCCN(CC2CCCOC2)C1 (centres undefined),-4,0.88
CC[C@H]1C(=O)NCCCN1C(=O)Cc1n[nH]c2c1CCCC2,-5,0.84
OC1(CNc2ccc3cccc(Br)c3n2)CCOCC1,-3,0.38
NC(=O)Cn1ccnc1-c1cncc(Br)c1,4,-0.46
COC[C@@H]1CN(c2ccncn2)C[C@H]1C(=O)NCCn1cccn1,-6,0.95
Cn1cc(-c2csc(CNc3ccn(CC(F)F)n3)n2)cn1,-4,0.65
CCOc1ccccc1-c1cc(C(=O)NCCc2ccccc2)c2c(-c3ccccc3)[nH]nc2n1,-4,0.51
CN1c2cc(F)c(NC(=O)NCc3cccs3)cc2N(C)S1(=O)=O,-19,2.42
Cc1ccc(NCCNCc2ccccc2Cl)nn1,28,-3.18
O=C(OCc1cc(Cl)c2c(c1)OCO2)c1cnccn1,30,-3.82
COc1c2c(cc3c1[C@H](C(=O)NC(c1ccccc1)c1ccccc1)[N+](C)(C)CC3)OCO2,2,-0.21
CCn1nnnc1NC(=O)NCCc1[nH]nc2c1CCCC2,2,-0.24
O=C(c1ccc2[nH]ccc2c1)N1CC(c2nc(C3CC3)no2)C1,-11,2.09

Compound,% Inhibition [%],Z score
CCS(=O)(=O)Cc1ccc(NC(=O)NCC2=CCCCC2)cc1,-8,1.05
COCCn1cnc2c(-c3ccccc3)cn(CC(=O)Nc3ccc4c(c3)OCO4)c2c1=O,-5,0.91
CC(C)(C)CNC(=O)CC1(C(=O)NCC(C)(C)C)CCOCC1,-9,0.76
CN(CCc1cnn(C)c1)Cc1nc(-c2ccccc2)cs1,-3,0.48
O=C(Cc1ccc(-c2ccccc2)cc1)Nc1cccnc1,29,-3.9
CCCn1cnc2cc(-c3noc(-c4cccc(F)c4)n3)ccc21,-6,0.73
Fc1cc(-c2cnc3nncn3c2)cc(F)c1F,-8,0.98
O=C(c1ccco1)N1CCN(c2cnsn2)CC1,-24,3.11
O=C(NCC#Cc1cccc(F)c1)C1CCS(=O)(=O)CC1,1,-0.1
Cc1cc(Nc2[nH]nc(N)c2C#N)ccc1F,0,-0.04
O=S(=O)(c1ccc(N2CCCC2)c(NCc2c(F)cccc2Cl)c1)N1CCOCC1,-15,3.01
Cc1cc(-c2ccccc2)nc(CN(C)Cc2nc(C)c[nH]2)n1,3,-0.44
CC(C)c1nnc(NC(=O)c2scnc2C(C)(C)C)[nH]1,1,-0.1
COCCCNC(=O)Nc1nnc(N(C)Cc2ccccc2)s1,-5,0.77
Cc1ccc2nc3c(c(C(=O)O)c2c1)CCCC3=Cc1cnn(C(C)C)c1,-5,0.72
CC(C)c1nc2c(c(OC3CCN(C(=O)NCCc4ccccc4)CC3)n1)CCOCC2,-10,1.57
CCOC1CC(O)(CNC(=O)C(C)C)C1(C)C (centres undefined),-7,1.12
O=C(CCn1ccnn1)Nc1ccc(OC2CCCC2)c(Cl)c1,-38,4.42
COc1cccc(NC(=O)c2n[nH]c3c2CCc2ccccc2-3)c1,-13,1.13
